Test results published in patent US11999737B2, “Kinase inhibitors and related methods of use” (Duke University, priority 2014, dated 2024).

Experiments:
GFP-ZIPK = GFP-ZIPK (Homo sapiens, UniProt O43293); assay: FLECS elution of GFP-ZIPK from γ-linked ATP Sepharose media; assay type: binding
PIM3-GFP = PIM3-GFP (Homo sapiens, UniProt Q86V86); assay: FLECS elution of PIM3-GFP from γ-linked ATP Sepharose media; assay type: binding; settings: titration from ATP Sepharose; calculated from EC50; read-out: apparent Kd, elution of PIM3-GFP
Abl kinase = Abl kinase (Homo sapiens, UniProt P00519); assay: 33P-ATP filter-binding kinase assay (kinome profile); assay type: biochemical; settings: 10 μM HS38
EGFR-TK = EGFR-TK (Homo sapiens, UniProt P00533); assay: as above; assay type: biochemical; settings: 10 μM HS38
[1] = system: LC20 diphosphorylation (T18/S19); assay: LC20 diphosphorylation in human coronary artery smooth muscle cells; assay type: cell-based; settings: HS-38 10 μM, 40 min; serum-free and 2-min 5% FBS; p<0.01
Experimental: (§1) Cells were serum-starved overnight, incubated for 40 min with HS-38 (10 μM) or vehicle and treated (or not) with 5% FBS for 2 min prior to lysis in SDS-gel sample buffer for SDS-PAGE and western blotting with anti-diphospho(T18/S19)-LC20, anti-phosphoT855-MYPT1 or anti-phosphoT155-Par-4. Phosphorylated bands were quantified by scanning densitometry and normalized to the loading control (SM22). Phosphorylation levels in the presence of HS-38 are expressed as a percentage of control (absence of ZIPK inhibitor). Values represent means±S.E.M. (n values are indicated in parentheses).
as §1, with “Human coronary artery smooth muscle cells (hCA-VSMC)” for “Cells”, “fetal bovine serum (FBS)” for “FBS”, “anti-2P-LC20, anti-pT855-MYPT1” for “anti-diphospho(T18/S19)-LC20, anti-phosphoT855-MYPT1”, “anti-pPar-4.” for “anti-phosphoT155-Par-4.”, “(SM22 or GAPDH).” for “(SM22).”, “parentheses). The hCA-VSMC (#CC-2583) cells were from Lonza Inc. Cells were grown to passage 1.” for “parentheses).”

[2] = system: MYPT1-T855 phosphorylation; assay: MYPT1-T855 phosphorylation in human coronary artery smooth muscle cells; assay type: cell-based; settings: HS-38 10 μM, 40 min; serum-free or 2-min 5% FBS
Experimental: as §1
as §1, with “Human coronary artery smooth muscle cells (hCA-VSMC)” for “Cells”, “fetal bovine serum (FBS)” for “FBS”, “anti-2P-LC20, anti-pT855-MYPT1” for “anti-diphospho(T18/S19)-LC20, anti-phosphoT855-MYPT1”, “anti-pPar-4.” for “anti-phosphoT155-Par-4.”, “(SM22 or GAPDH).” for “(SM22).”, “parentheses). The hCA-VSMC (#CC-2583) cells were from Lonza Inc. Cells were grown to passage 1.” for “parentheses).”

[3] = system: Par-4-T155 phosphorylation; assay: Par-4-T155 phosphorylation in human coronary artery smooth muscle cells; assay type: cell-based; settings: HS-38 10 μM, 40 min; serum-free or 2-min 5% FBS
Experimental: as §1
as §1, with “Human coronary artery smooth muscle cells (hCA-VSMC)” for “Cells”, “fetal bovine serum (FBS)” for “FBS”, “anti-2P-LC20, anti-pT855-MYPT1” for “anti-diphospho(T18/S19)-LC20, anti-phosphoT855-MYPT1”, “anti-pPar-4.” for “anti-phosphoT155-Par-4.”, “(SM22 or GAPDH).” for “(SM22).”, “parentheses). The hCA-VSMC (#CC-2583) cells were from Lonza Inc. Cells were grown to passage 1.” for “parentheses).”

[4] = system: rat ileal longitudinal smooth muscle; assay: Calyculin A-induced contractile force of isolated rat ileal smooth muscle; settings: normalized to carbachol
Experimental: (§2) The data are isometric contractile responses of ileal longitudinal smooth muscle isolated from male Sprague-Dawley rats. Forces generated during calyculin A (10 μM) administration were measured, and data are expressed as the absolute force found for HS-38 treatments normalized to an initial contraction with carbachol (% CCh). HS-38 was provided 30 min prior to the addition of calyculin A.
as §2, with “with HS-84 treatment” for “for HS-38 treatments”
Small intestine (ileum) was removed from male Sprague-Dawley rats anesthetized and euthanized according to protocols approved by the University of Calgary Animal Care and Use Committee. Ileal smooth muscle sheets were dissected and cut into longitudinal smooth muscle strips (250 μm×2 mm). For force measurement muscle strips were tied with silk monofilaments to the tips of two fine wires. One wire was fixed, and the other was connected to a force transducer (SensoNor, AE801). The strip was mounted in a well on a stir plate to allow rapid solution exchange. […]

DAPK1 = DAPK1 (Homo sapiens, UniProt P53355); assay: 33P-ATP filter-binding kinase assay
Chain of UniProt P53355 (P53355 whole entry): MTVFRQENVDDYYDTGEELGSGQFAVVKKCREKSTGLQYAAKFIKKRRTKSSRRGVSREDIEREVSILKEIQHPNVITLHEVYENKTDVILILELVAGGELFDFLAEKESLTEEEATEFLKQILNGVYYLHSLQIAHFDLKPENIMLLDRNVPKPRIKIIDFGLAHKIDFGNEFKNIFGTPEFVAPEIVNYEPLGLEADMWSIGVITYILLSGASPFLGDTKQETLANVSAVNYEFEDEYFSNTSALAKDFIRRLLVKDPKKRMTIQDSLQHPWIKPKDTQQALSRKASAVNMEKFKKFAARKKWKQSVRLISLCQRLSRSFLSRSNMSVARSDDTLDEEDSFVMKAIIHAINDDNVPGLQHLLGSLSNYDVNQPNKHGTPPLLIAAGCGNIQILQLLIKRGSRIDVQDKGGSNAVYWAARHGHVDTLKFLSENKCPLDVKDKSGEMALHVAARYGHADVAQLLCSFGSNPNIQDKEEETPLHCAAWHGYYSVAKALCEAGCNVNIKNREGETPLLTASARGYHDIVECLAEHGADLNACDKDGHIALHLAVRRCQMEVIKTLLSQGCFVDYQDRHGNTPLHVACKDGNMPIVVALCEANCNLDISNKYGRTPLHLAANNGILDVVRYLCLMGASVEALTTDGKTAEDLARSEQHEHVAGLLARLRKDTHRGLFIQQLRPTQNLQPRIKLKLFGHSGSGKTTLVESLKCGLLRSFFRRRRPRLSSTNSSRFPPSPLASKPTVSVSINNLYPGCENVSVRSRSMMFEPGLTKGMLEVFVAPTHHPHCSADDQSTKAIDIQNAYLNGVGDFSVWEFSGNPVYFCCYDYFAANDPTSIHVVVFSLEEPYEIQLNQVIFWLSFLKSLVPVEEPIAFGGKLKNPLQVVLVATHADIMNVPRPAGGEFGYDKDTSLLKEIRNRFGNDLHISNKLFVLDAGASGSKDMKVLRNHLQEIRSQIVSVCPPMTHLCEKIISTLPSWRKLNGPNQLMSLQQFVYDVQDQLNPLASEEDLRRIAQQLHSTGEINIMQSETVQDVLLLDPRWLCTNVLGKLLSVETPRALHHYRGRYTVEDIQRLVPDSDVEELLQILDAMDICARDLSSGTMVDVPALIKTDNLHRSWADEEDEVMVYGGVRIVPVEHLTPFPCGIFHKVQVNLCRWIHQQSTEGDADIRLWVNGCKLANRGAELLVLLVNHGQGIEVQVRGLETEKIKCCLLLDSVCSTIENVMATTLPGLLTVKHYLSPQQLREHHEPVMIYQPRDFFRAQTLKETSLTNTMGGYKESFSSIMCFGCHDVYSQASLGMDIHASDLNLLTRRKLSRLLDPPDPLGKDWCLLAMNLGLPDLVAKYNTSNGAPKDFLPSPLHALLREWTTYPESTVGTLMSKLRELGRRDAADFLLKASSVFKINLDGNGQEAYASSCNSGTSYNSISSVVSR

PIM3 = PIM3 (Homo sapiens, UniProt Q86V86); assay: 33P-ATP filter-binding kinase assay
PIM2 = PIM2 (Homo sapiens, UniProt Q9P1W9); assay: 33P-ATP filter-binding kinase assay
Chain of UniProt Q9P1W9 (Q9P1W9 whole entry): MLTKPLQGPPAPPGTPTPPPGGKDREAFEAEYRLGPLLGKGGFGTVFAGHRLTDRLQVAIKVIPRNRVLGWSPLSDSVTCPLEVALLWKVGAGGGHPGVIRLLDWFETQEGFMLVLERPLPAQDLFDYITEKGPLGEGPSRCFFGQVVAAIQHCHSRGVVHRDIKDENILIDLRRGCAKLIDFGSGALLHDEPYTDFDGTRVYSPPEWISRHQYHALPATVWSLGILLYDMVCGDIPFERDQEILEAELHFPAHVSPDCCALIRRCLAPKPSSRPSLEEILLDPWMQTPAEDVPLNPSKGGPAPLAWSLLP

smMLCK = smMLCK (Homo sapiens, UniProt Q15746); assay: 33P-ATP filter-binding kinase assay
Chain of UniProt Q15746 (Q15746 whole entry): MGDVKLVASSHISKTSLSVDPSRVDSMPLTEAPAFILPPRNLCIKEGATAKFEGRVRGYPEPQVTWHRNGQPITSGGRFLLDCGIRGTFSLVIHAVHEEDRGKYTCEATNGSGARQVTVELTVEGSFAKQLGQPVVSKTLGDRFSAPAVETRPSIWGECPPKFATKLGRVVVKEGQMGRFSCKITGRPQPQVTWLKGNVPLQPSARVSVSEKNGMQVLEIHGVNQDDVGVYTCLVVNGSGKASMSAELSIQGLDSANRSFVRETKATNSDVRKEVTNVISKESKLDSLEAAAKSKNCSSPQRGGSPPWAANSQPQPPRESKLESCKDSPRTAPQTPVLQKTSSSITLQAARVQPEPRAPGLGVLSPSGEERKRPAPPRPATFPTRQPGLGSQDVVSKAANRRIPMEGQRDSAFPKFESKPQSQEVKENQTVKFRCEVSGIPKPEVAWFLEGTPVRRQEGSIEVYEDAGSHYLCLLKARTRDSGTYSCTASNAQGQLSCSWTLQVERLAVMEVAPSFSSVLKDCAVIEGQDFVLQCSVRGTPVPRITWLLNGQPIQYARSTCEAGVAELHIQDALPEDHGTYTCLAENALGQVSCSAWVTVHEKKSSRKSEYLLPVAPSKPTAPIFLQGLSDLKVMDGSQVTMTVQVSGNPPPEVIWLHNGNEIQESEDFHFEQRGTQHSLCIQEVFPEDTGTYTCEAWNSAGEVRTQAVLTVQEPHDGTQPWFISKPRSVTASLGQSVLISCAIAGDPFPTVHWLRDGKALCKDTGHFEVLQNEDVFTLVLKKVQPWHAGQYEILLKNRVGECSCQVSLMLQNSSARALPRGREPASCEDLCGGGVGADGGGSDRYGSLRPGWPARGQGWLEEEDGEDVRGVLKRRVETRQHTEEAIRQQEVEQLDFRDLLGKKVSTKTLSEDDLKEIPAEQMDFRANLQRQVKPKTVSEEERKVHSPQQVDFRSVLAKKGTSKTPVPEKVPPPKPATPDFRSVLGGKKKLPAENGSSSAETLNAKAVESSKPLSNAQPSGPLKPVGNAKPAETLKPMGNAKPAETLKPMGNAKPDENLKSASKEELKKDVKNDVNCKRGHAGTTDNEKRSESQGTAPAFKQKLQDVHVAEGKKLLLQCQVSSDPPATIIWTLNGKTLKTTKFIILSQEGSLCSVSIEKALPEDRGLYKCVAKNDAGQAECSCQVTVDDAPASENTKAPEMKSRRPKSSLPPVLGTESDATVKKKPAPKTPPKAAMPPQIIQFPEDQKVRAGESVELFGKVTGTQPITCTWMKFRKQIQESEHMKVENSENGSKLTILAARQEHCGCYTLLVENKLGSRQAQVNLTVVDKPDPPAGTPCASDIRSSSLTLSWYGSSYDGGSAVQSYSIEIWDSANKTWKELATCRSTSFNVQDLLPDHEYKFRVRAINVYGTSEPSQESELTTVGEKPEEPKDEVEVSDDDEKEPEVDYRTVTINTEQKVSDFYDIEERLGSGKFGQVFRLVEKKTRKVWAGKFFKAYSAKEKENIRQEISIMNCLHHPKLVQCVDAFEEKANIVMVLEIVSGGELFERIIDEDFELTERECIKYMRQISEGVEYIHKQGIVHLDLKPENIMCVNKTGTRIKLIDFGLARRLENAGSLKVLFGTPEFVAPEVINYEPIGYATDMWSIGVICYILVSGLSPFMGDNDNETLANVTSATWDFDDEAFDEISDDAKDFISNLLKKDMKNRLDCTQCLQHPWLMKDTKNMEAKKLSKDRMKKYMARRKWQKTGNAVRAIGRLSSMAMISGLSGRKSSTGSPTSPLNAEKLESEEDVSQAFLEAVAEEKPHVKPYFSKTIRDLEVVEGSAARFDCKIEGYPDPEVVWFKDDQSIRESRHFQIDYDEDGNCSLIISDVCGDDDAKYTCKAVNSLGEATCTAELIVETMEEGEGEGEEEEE

Chain of UniProt O43293 (O43293 whole entry): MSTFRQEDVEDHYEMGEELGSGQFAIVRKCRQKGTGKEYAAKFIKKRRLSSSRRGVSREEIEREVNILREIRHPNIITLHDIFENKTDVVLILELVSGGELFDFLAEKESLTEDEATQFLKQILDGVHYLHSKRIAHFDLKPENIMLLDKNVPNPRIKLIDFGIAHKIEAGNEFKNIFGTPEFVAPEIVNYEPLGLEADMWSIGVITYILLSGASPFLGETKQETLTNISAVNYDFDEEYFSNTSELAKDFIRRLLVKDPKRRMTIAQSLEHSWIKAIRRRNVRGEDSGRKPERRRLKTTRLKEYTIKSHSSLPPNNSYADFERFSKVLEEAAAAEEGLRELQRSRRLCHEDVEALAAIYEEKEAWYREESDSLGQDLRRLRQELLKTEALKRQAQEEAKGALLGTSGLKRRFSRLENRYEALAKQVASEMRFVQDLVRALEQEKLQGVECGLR

For `CC(Sc1nc2c(cnn2-c2cccc(Cl)c2)c(=O)[nH]1)C(N)=O` (stereo not drawn) [HS38], the “increase in fluorescence above background on elution of GFP-ZIPK” value (GFP-ZIPK; drug candidate screen) was greater than 4 fold, the “elution of GFP-ZIPK confirmed by western blot analysis” value (GFP-ZIPK; screen hits) was “most potent” and the Kd (GFP-ZIPK; titration from ATP Sepharose, calculated from EC50, read-out: apparent Kd, elution of GFP-ZIPK) was 198 nM. The Kd (PIM3-GFP) was 19 nM, the inhibition at 10 µM (Abl kinase) was 0% and the inhibition at 10 µM (EGFR-TK) was 41%. For the same compound, the LC20 diphosphorylation [1] was “significant reduction”, the MYPT1-T855 phosphorylation [2] was “no significant effect” and the Par-4-T155 phosphorylation [3] was “no significant effect”. The “contractile force development of isolated rat ileal smooth muscle” value [4] was “attenuated”, the inhibition at 10 µM (DAPK1) was 89% and the IC50 (DAPK1; kinome profiling) was 200 nM. The inhibition at 10 µM (PIM3) was 76%, the “fold less potent than against DAPK1 and PIM3” value (PIM2) was roughly 100 fold and the “fold less potent than against DAPK1 and PIM3” value (smMLCK) was roughly 100 fold.
